Assay results as given in PubChem BioAssay AID504333 (National Center for Advancing Translational Sciences (NCATS), 2011).
About 16,000 (4.4%) of roughly 360,000 compounds were called active. Inconclusive results, whose numbers are uncertain, are shown with a selection of clear calls. Calls follow the shape of the dose curve; as a rule, active = well fitted inhibition curve with a large enough effect; inconclusive = small, poorly fitted or top-dose-only effect; inactive = no such curve, though single readings can be large or run the other way. Where the call is inconclusive, the potency comes from a doubtful curve fit.

Biological target: Bromodomain adjacent to zinc finger domain protein 2B (Homo sapiens) (UniProt Q9UIF8)
Experiment: qHTS Assay for Inhibitors of BAZ2B; also: nearly all actives have a fitted effect of over 60% in size
Details: AlphaScreen BAZ2B-H3K14Ac peptide displacement; activity change, negative = inhibition: at 114 µM (top of the series) unless noted
In short: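 Inhibition is scored as reduced AlphaScreen emission. The BAZ2B/b-H3(5-23)K14Ac complex (50 nM each) in PBS pH 7.4, 0.01% Tween-20 meets compound (up to 110 uM) for 30 min at RT before bead addition.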
% is scaled to controls: 0 for no effect and ±100 for the full control effect; potency is read from the fitted curve at half-maximal effect; tags tell the direction and shape of the fitted curve.

UniProt Q9UIF8, sequence (Q9UIF8 whole entry, looked up, the tested form may be a part): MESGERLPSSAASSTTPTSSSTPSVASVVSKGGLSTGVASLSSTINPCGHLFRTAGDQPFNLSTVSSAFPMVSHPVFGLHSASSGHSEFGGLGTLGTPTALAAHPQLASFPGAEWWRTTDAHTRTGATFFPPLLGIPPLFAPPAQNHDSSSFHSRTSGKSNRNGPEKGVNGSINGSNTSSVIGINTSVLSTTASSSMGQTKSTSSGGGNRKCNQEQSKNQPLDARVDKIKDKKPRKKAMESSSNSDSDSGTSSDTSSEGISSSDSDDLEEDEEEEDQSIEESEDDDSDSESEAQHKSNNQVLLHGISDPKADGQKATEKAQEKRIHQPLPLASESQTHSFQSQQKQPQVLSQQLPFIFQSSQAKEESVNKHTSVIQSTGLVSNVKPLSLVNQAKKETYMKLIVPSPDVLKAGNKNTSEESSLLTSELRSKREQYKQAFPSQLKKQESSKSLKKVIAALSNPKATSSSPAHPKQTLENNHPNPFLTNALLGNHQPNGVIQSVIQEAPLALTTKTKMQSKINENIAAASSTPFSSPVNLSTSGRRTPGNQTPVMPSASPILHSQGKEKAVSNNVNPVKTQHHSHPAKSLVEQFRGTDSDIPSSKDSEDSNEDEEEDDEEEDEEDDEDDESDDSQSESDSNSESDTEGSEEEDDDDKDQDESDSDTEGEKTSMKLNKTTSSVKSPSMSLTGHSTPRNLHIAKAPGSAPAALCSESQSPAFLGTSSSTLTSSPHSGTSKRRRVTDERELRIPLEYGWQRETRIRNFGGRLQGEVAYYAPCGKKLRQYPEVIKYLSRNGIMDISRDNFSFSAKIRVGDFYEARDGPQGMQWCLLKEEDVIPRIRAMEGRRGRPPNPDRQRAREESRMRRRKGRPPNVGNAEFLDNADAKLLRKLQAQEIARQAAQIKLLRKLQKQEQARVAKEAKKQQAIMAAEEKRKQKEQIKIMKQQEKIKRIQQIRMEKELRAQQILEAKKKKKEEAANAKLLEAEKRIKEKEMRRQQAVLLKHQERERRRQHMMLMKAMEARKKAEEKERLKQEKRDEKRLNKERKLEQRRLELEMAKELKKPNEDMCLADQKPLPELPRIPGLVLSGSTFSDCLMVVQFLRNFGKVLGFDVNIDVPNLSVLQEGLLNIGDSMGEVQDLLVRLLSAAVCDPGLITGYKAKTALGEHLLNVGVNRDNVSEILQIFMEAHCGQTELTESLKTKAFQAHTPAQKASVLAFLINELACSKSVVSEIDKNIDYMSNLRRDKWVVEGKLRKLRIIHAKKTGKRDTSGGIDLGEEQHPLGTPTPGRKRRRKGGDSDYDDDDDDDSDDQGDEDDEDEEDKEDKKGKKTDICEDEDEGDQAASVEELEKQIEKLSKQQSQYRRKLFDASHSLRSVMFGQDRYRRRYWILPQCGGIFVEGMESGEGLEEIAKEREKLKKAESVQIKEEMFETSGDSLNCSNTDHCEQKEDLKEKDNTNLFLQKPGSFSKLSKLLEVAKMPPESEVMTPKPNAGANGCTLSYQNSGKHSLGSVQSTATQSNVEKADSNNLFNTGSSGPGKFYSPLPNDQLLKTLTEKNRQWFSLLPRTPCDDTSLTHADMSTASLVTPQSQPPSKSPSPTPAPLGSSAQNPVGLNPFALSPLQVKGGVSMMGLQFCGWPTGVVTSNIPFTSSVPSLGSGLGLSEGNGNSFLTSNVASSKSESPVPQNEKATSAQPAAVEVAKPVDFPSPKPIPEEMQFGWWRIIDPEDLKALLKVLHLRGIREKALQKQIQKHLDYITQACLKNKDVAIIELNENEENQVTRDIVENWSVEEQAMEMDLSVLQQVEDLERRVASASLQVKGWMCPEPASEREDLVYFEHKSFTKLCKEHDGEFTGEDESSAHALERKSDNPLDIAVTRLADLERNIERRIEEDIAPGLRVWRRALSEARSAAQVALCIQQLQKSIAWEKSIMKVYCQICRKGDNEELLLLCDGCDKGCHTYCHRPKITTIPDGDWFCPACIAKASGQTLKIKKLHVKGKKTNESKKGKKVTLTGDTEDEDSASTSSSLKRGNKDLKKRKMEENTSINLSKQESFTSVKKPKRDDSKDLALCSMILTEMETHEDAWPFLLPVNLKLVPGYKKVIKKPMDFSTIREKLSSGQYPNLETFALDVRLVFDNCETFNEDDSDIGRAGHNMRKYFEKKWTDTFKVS

SMILES | Potency | activity change, negative = inhibition
Cc1cc(C)c(S(=O)(=O)/N=C2\C=C(NS(=O)(=O)c3ccccc3)C(=O)c3ccccc32)c(C)c1 | active: 5.62 µM | 
O=C(NCC1CCCO1)c1onc(CSc2ccccc2)c1C(=O)O (centres undefined) | inconclusive: 79.4 µM [inhibitor, single point] | 
CC(=O)c1ccc(N2C(=NC(=O)CCc3ccccc3)SC3CS(=O)(=O)CC32)cc1 (centres undefined) |  | inactive: -33.9%
CC1(c2ccccc2)NC(=O)N(CC(=O)NNC(=O)c2ccccc2)C1=O (centres undefined) |  | inactive: -16.2%
Cc1ccc(C(=O)O)cc1-c1ccc(/C=C2\SC(=O)N(CC(=O)Nc3ccc4c(c3)OCO4)C2=O)o1 | active: 11.2 µM | 
CC1=NN(c2ccc(C)c(C)c2)C(=O)/C1=C/c1ccc2c(c1)n(C)c(=O)n2C | inconclusive: 89.1 µM [inhibitor, single point] | 
CN(C)c1ccc(NC(=O)CN2C(=O)c3ccccc3Sc3ccc(C(=O)N4CCCC4)cc32)cc1 | inconclusive: 35.5 µM [inhibitor, partial curve] | 
Cc1ccccc1CN1C(=O)CS/C1=N/N=C/c1ccco1 | inconclusive: 79.4 µM [inhibitor, partial curve] | 
CCc1nc(OCc2ccco2)c2sc3nc4c(cc3c2n1)COC(C)(C)C4 | inconclusive: 89.1 µM [inhibitor, single point] | 
Cc1cc(NS(=O)(=O)c2ccc(Nc3nc(-c4sc(NC(=O)c5ccccc5)nc4C)cs3)cc2)no1 | inconclusive: 39.8 µM [inhibitor, partial curve] | 
O=C1C(Cc2ccccc2)S/C(=N/N=C/c2ccco2)N1c1ccccc1 (centres undefined) | inconclusive: 100 µM [inhibitor, single point] | 
Cc1ccc(CNC(=O)Cn2c(=O)ccc3cc(S(=O)(=O)N4CCCC4)ccc32)cc1 |  | inactive: 1.64%
O/N=C1/CCCCC1c1ccccn1 (centres undefined) | active: 50.1 µM | 
COc1ccc(/C=C/C(=O)c2ccc(OC)cc2OC)cc1 |  | inactive: -11.4%
Cc1ccc2c(c1)sc[n+]2Cc1ccccc1 | active: 70.8 µM | 
O=[N+]([O-])c1cc(C(F)(F)F)ccc1Sc1ccccn1 | inconclusive: 50.1 µM [inhibitor, partial curve] | 
c1ccc(CN2CCC(N3CCC(N4CCCCCC4)CC3)CC2)cc1 | inconclusive: 1.41 µM [inhibitor, full curve, poor fit] | 
OC(CNC1CCCc2ccccc21)COc1c(Cl)cccc1Cl (centres undefined) | active: 39.8 µM | 
O=S(=O)(NC1CC2CCC1C2)c1ccc(Br)s1 (centres undefined) |  | inactive: 16.4%
Cc1ccc(S(=O)(=O)Nc2cc3c(C(=O)O)c(C)oc3c3ccccc23)c(C)c1 | active: 50.1 µM | 
CCOc1cc(CNc2ccccc2SC)ccc1O | active: 56.2 µM | 
COc1cc(NC(=O)Nc2nnc(N3CCCCCC3)s2)cc(OC)c1 |  | inactive: -2.02%
COC(=O)CNc1ccc2c(c1)OCO2 |  | inactive: -32.5%
C=CCN1C(=O)C(O)(CC(=O)c2ccccn2)c2ccccc21 (centres undefined) | inconclusive: 89.1 µM [inhibitor, single point] | 
Cc1ccc2sc(N(CCN(C)C)C(=O)c3ccc4ccccc4c3)nc2c1C | inconclusive: 20 µM [inhibitor, partial curve] | 
O=C(/C(=C/O)N=Nc1ccc(Cl)cc1)c1ccncc1 | active: 31.6 µM | 
COc1ccc(-c2n[nH]c(C)c2-c2cc(OC)ccc2O)cc1 |  | inactive: -33.4%

SMILES | Potency | activity change, negative = inhibition
Cc1ccc2oc(C(=O)N(C)Cc3ccon3)c(C)c2c1 |  | inactive: 2.5%
Cc1ccc2nc(-c3ccc(Cl)c(NC(=O)c4cccc([N+](=O)[O-])c4C)c3)oc2c1 | inconclusive: 89.1 µM [inhibitor, single point] | 
C/C(=N\Nc1cccc(C(=O)O)c1)c1cc2ccccc2o1 | inconclusive: 35.5 µM [inhibitor, partial curve] | 
CCC1Oc2ccc(C)cc2N(CC(=O)NCC2CCCO2)C1=O (centres undefined) |  | inactive: 29.8%
COC(=O)c1ccccc1NC(=O)COc1ccccc1[N+](=O)[O-] | inconclusive: 79.4 µM [inhibitor, single point] | 
Cc1ccc2nc(-c3ccccc3)c(CC(=O)O)c(C(=O)O)c2c1 | inconclusive: 79.4 µM [inhibitor, single point] | 
COc1cccc(CNc2ccc(N3CCCCC3)cc2)c1OC | active: 14.1 µM | 
COc1ccc2[nH]c(=O)c(C3c4cc(OC)c(OC)cc4CCN3C(=O)c3ccco3)cc2c1 (centres undefined) | inconclusive: 70.8 µM [inhibitor, single point] | 
Cc1cc(NS(=O)(=O)c2ccc(NC(=O)c3ccco3)cc2)nc(C)n1 |  | inactive: 5.58%
COc1ccc(C(CC(=O)NC(C)(C)C)n2cccc2)cc1 (centres undefined) | inconclusive: 89.1 µM [inhibitor, single point] | 
Cc1ccc2c(C)c(C(=O)N(Cc3ccc(N(C)C)cc3)C3CCS(=O)(=O)C3)oc2c1 (centres undefined) | active: 12.6 µM | 
O=C(c1cc([N+](=O)[O-])ccc1N1CCOCC1)N1CCN(c2ccc([N+](=O)[O-])cc2)CC1 |  | inactive: -14.4%
O=C(c1ccco1)N(Cc1cccc([N+](=O)[O-])c1)c1ccc(Br)cc1 | active: 50.1 µM | 
CCC(=O)Nc1ccc2c(c1)nc(CCNC(=O)c1ccco1)n2C |  | inactive: 8.4%
O=C(O)c1ccc(-n2nc(C(F)(F)F)c3c2-c2ccoc2CC3)cc1 | inconclusive: 79.4 µM [inhibitor, single point] | 
O=C(N/N=C/c1ccncc1)c1ccccc1[N+](=O)[O-] |  | inactive: -16.2%
COC(=O)Nc1sc2c(c1C(=O)NCc1ccco1)CCC2 | inconclusive: 79.4 µM [inhibitor, single point] | 
Cc1ccc(NC(=O)Cn2nnc(-c3nc(-c4ccncc4)no3)c2N)c(C)c1 |  | inactive: -4.21%
CCOc1ccccc1N1CCN(S(=O)(=O)CC)CC1 |  | inactive: -4.5%
COc1ccccc1NC(=O)C1=C(C)Nc2nc(SCc3ccc(Cl)cc3)nn2C1c1ccccc1Cl (centres undefined) |  | inactive: -2.42%
CCOc1cc(OCC)cc(C(=O)NCCCN2CCOCC2)c1 | inconclusive: 89.1 µM [inhibitor, single point] | 
CC(C)CNc1nc(SCC(=O)Nc2ccccc2)nc(N2CCOCC2)n1 | inconclusive: 79.4 µM [inhibitor, single point] | 
COc1ccccc1C(=O)N(C)CC(=O)Nc1ccc(N2CCOCC2)cc1 |  | inactive: 0.722%
Cc1cc(N/N=C/c2ccccc2F)nc(NCc2ccccc2)n1 | inconclusive: 31.6 µM [inhibitor, partial curve] | 
CCN1C(=O)CC(C(=O)OC)=C1C |  | inactive: 2.66%
CCOC(=O)N1CCN(C(=O)CN(Cc2ccc(Cl)cc2)S(=O)(=O)c2ccc(C)cc2)CC1 |  | inactive: 3.32%
COc1ccc(CNC(=O)C2CCN(S(=O)(=O)c3c(C)noc3/C=C/N(C)C)CC2)cc1 | inconclusive: 89.1 µM [inhibitor, partial curve] | 

SMILES | Potency | activity change, negative = inhibition
CCc1ccc(NCc2cc3ccc(OC)cc3n(CC(=O)Nc3ccc(C(C)C)cc3)c2=O)cc1 | inconclusive: 89.1 µM [inhibitor, single point] | 
CCOc1ccc(S(=O)(=O)NC2CC2)cc1C(N)=O | inconclusive: 100 µM [inhibitor, single point] | 
O=C(CSc1ccc2nnc(-c3cccnc3)n2n1)Nc1ccccc1 |  | inactive: -10.8%
COCCNC(=S)NC(=O)c1ccc(C(C)(C)C)cc1 | inconclusive: 50.1 µM [inhibitor, partial curve] | 
Cc1ccc(Nc2c(-c3ccsc3)nc3cccc(C)n23)cc1 | inconclusive: 20 µM [inhibitor, full curve] | 
O=C(/C=C/c1ccccc1)NC(NC(=S)Nc1ccc(Cl)cc1Cl)C(Cl)(Cl)Cl (centres undefined) |  | inactive: -3.48%
COc1ccc(C(C)(C)C)cc1NC(=O)Nc1ccc2c(c1)OCO2 | inconclusive: 31.6 µM [inhibitor, full curve] | 
O=C(COc1ccc(S(=O)(=O)N2CCCCC2)cc1)Nc1ccccc1F |  | inactive: 4.43%
O=C(NCc1ccc(F)cc1)C1CCCN(c2ncnc3onc(-c4ccc(F)cc4)c23)C1 (centres undefined) |  | inactive: 16.7% [at 57.1 µM]
CC(=O)C1=C(O)C(=O)N(c2ccc(O)cc2)C1c1cccc(F)c1 (centres undefined) |  | inactive: 4.7%
C/C(=N\NC(=O)Cc1ccccc1Cl)c1cccnc1 | inconclusive: 39.8 µM [inhibitor, partial curve] | 
Cc1c(NC(=O)CC(C)C)cccc1-c1nc2cccnc2s1 | inconclusive: 25.1 µM [inhibitor, full curve, poor fit] | 
COc1ccc(CNC(=O)CNC(C)c2ccc(F)cc2)cc1 (centres undefined) | active: 56.2 µM | 
OC(CNCCc1ccc(Cl)cc1Cl)COc1ccccc1 (centres undefined) | active: 70.8 µM | 
CCOc1ccccc1NC(=O)C1C2C=CC(O2)C1C(=O)O (centres undefined) | inconclusive: 89.1 µM [inhibitor, single point] | 
COCC(C)NCC(=O)NC(C)CCc1ccccc1 (centres undefined) | active: 56.2 µM | 
CC(=O)n1c2ccccc2c2nc(NC(C)C)sc21 | active: 50.1 µM | 
O=C(O)c1cccnc1C(=O)O | active: 6.31 µM | 
c1ccc(-c2nnc(SCc3nnc(-c4cccs4)o3)o2)cc1 | active: 50.1 µM | 
C/C=C/C(=O)Nc1cccc(C2=NOC3(C2)C[C@H](C(N)=O)N(C(=O)/C=C/C)C3)c1 (some centres undefined) |  | inactive: -0.486%
Clc1ccc2nc(NCc3ccccc3)c3nncn3c2c1 |  | inactive: -1.64%
C/C(=C\C(=O)c1ccncc1)Nc1ccccc1O |  | inactive: -38.2%
COc1ccc(N2CC(C(=O)Nc3nc4ccc(S(C)(=O)=O)cc4s3)CC2=O)cc1 (centres undefined) | inconclusive: 44.7 µM [inhibitor, partial curve] | 
Cc1ccc(NC(=O)CSC2=Nc3ccccc3C3=NC(Cc4ccccc4)C(=O)N23)cc1C (centres undefined) | inconclusive: 79.4 µM [inhibitor, single point] | 
CCC(C(=O)Nc1ccc2[nH]ncc2c1)c1ccccc1 (centres undefined) |  | inactive: -24.4%
